Measurements: the RNAGym collection of RNA variant scans (doi:10.7554/elife.90254)
The source gives no read counts; variants with many changes may rest on few reads.

B1: LINE1-mini (parent)
chain: GGCAGAGCUCAACACAGCGUGGCAAAGUGGCUGUGGCUAGACUGCC

Variants of: B1
Test: self-cleavage, relative activity (ratio to wild type); higher = more cleavage; in vitro, sequencing; the parent is a self-cleaving ribozyme
Variant GGCAGUGCUCAACACAGCGUGGCAAACUGGCUGUGGCUAGUCUGCC [A6U G27C A41U] has a self-cleavage of 0.04.
With GGCAUAGCUCAACAAAUCGUGGCAAAGUGGCUGUGGCGAGACUGCC [G5U C15A G17U U38G] the self-cleavage was 0.04.
GGCAGAGCUCAACACAGCGAGGCAAGGUGCCUGUGGCUAGACUGCC [U20A A26G G30C] gave a self-cleavage of 0.25.
In the case of GGCAGAUCUCAAAACAGGGUGGCAAAGUGGCUGUGGCUAGACUGCC [G7U C13A C18G], the self-cleavage is reported as 0.07.
For UGCAAAGCUCAACCCAGCGUAGCAAAGUGGCUGUGGCUAGACUGCC [G1U G5A A14C G21A], the self-cleavage was 0.16.
With GGCCGAGCUCAACACAGCGUGGCAAAGUGGCUGUGGUUAGCCUUCC [A4C C37U A41C G44U] the self-cleavage was 0.08.
With GGCAGAGCUCAACAAAGCGUGGCCAAGUGGCUGUGGGUAGACUGCC [C15A A24C C37G] the self-cleavage was 0.
GGCAGAGCUCAACACCGCGUGGCACAGUGGCUGUGGCUACACUGCC [A16C A25C G40C] showed a self-cleavage of 0.02.
For GGCAGAGCUCAACACCGCGUGGCACAGUGGCUGUGACUAGACUGCC [A16C A25C G36A], the self-cleavage was 0.1.
For GGCCGAGCUCAACACAGCGUGGCAAAGUGUCUGAGGCUAGAUUGAC [A4C G30U U34A C42U C45A], the self-cleavage was 0.05.
Work on GGCAGAGCUCAACACAGCGUGGAAAAGUGGCUCUGACUAGACUGCC [C23A G33C G36A] yielded a self-cleavage of 0.04.
Work on GGCAGAGCUCAACACCGCGUGGCAAAGUGGCUCUGGCUAGAUUGCC [A16C G33C C42U] yielded a self-cleavage of 0.13.
In the case of GGCAGAGCUCAACACAGCGUGGCAAAGUGGCUGUUGAUAGACUGAC [G35U C37A C45A], the self-cleavage is reported as 0.05.
With GGCAAAGCUCCACACAGCGUGGCAAAGUGGCUGUGGCUAGAAUGCC [G5A A11C C42A] the self-cleavage was 0.
GGCAGAUCUCAACACAGCGUGGCAUAGUGGCUGUUGCUAGACUGCC [G7U A25U G35U] showed a self-cleavage of 0.16.
CGGCGAGCUCUACACAGCGUGGCAAAGUGGCUGUUGCUAGGCUGCC [G1C C3G A4C A11U G35U A41G] gave a self-cleavage of 0.03.
In the case of CGCAGAGCUAAACACAGCGUGACAAAGUGGCUGUGCCUAGACUGCC [G1C C10A G22A G36C], the self-cleavage is reported as 0.02.
In the case of GGCAGAGCUCAACACAGUGUUGCAGAGUGGCUGUGGCUAGACUAUC [C18U G21U A25G G44A C45U], the self-cleavage is reported as 0.03.
GGCAGAGCUCAACACCGCGUGGCGAAGUGGCUGUGGCUUGACUGCC [A16C A24G A39U] showed a self-cleavage of 0.
In the case of GGCAGAGCUCAACACCGCGUGGCAAAGCGGCUGUGGCUACACUGCC [A16C U28C G40C], the self-cleavage is reported as 0.04.
For GGAAGAUCUCAACACAGCGUGCCAAAGUGGCUGUGGCUAUACUGCA [C3A G7U G22C G40U C46A], the self-cleavage was 0.05.
For GGCAGAACUCAACACAGCGCGGCAAAGGAGCUGUGGCUAGACUGCC [G7A U20C U28G G29A], the self-cleavage was 0.02.
In the case of GGCCGAGCUCAACACCGCGUGGCAAAGUGGCUGUGGCUAUACUUCC [A4C A16C G40U G44U], the self-cleavage is reported as 0.11.
GACAGAGCUGAACACAGCGUGGCAAAUUGGCUGUGGCGAGACUGCC [G2A C10G G27U U38G] gave a self-cleavage of 0.01.
GGCAGAGCUCAACACAGCGUGGCAAAGUGGCUGUCGCCAGUCUGCC [G35C U38C A41U] showed a self-cleavage of 0.06.
ACCAGAGUUCAACACAGCGUGGCACAGUGGCUGAGGCUAGAUUGCC [G1A G2C C8U A25C U34A C42U] showed a self-cleavage of 0.17.
In the case of GGCAGAACUCAACACAGCGUGGUAAAGUGGCUGCGGCUAGACUGCC [G7A C23U U34C], the self-cleavage is reported as 0.29.
Variant GGCAGAGAUCAAAACAGCGUGGCAAAGUCGCUGUGGCUCGUCCGCC [C8A C13A G29C A39C A41U U43C] has a self-cleavage of 0.02.
In the case of GGCAGAGCUCAACACAGCGUCGCAAAGUGGCUGGGGCUAUACUGCC [G21C U34G G40U], the self-cleavage is reported as 0.05.
Work on GGCACAGCUCGACACAGCGUGGCAAAGUAGCCGUGGCUAGAUUGCC [G5C A11G G29A U32C C42U] yielded a self-cleavage of 0.04.
For GGCAGAGCUCAACACACAGUGGCUAAGUGGCUGUGGCUAGACUGCC [G17C C18A A24U], the self-cleavage was 0.11.
With GGCAGAGCUAAACACAGCGUGUCAAAGUGUCUGUGGCUAGACUGGC [C10A G22U G30U C45G] the self-cleavage was 0.01.
GACAGAGUUCAACACAGCGUGGCAAAGUGGCUGUCGCUAGACUGCC [G2A C8U G35C] gave a self-cleavage of 0.17.
Variant GGCAGAGCUCGACACAUCGUGGCCAAGUGGCUCUGGCUAGACUGCC [A11G G17U A24C G33C] has a self-cleavage of 0.01.
Variant GGCAAGGCUCACCACAGCGUCCCAAAGUGGCUGUGGCUCGGCUGCC [G5A A6G A12C G21C G22C A39C A41G] has a self-cleavage of 0.
In the case of UGCAGAGCUCCACACAGCGUGGCAAAGUGGCUGUGGCUAUACUGCC [G1U A11C G40U], the self-cleavage is reported as 0.07.
GGCAGCGGUCAACACAGCGUGGCAAAUUGGCUGUGGCUCGACUGCC [A6C C8G G27U A39C] gave a self-cleavage of 0.08.
In the case of GGCAGAGCUAACCACAGCGUGGCCAAGUGGCUGUGGCUAGACUGCC [C10A A12C A24C], the self-cleavage is reported as 0.02.
For UGAAGAGCUCUACACAGCGUGUCAAAGUGGCUGUGGCUAGCCUGCC [G1U C3A A11U G22U A41C], the self-cleavage was 0.02.
With GGCAGAGCUCAACACUUCGUGGCAAAAUGGCGGUGGCUAGACUGCC [A16U G17U G27A U32G] the self-cleavage was 0.32.
GGCAGAGCUCAACACAGCAUGGCAAAGUGGCUGAGCCUAGACUGCC [G19A U34A G36C] gave a self-cleavage of 0.04.
With GGCAGAGCUCUACACAGCGUGGCAAAUGGGCUGUUGCUAGACUUCC [A11U G27U U28G G35U G44U] the self-cleavage was 0.01.
For GGCAGAGCUCACCACACUGUGGCAAAGUGGCUGUGGCUGGACUGCC [A12C G17C C18U A39G], the self-cleavage was 0.
Work on GGCGGAACUCAACACAGCGUGGCAAAGUGGCUGUGGCUACACUGCC [A4G G7A G40C] yielded a self-cleavage of 0.3.
GGCACAGCUCAACACAACGUGGCAAAGUGGCUGUGGAUAGACUGCC [G5C G17A C37A] gave a self-cleavage of 0.02.
For GGCAGAGCUCAACACGGCGUUGCAAAGUGGCUGUGGAUAGACUGCC [A16G G21U C37A], the self-cleavage was 0.03.
For GGCAGAGCUCAACUCAGCGUCGCAAAGCGGCUGUGGCUAGACUGCC [A14U G21C U28C], the self-cleavage was 0.4.
Variant GGCAGAGCUCAACACUGCGUGGCAAAGAUGCUGUGACUAGACUGCC [A16U U28A G29U G36A] has a self-cleavage of 0.25.
In the case of GGCAGAGCUCAACACAGCGUAGCAAAGUGGUUGUGGCUAGAUUGCC [G21A C31U C42U], the self-cleavage is reported as 0.01.
Work on GGCAGCGCUGAACACAGCGUGGCAACGUGGCUGUUGCUAGACUGCC [A6C C10G A26C G35U] yielded a self-cleavage of 0.02.
In the case of CGCCGAGCUGAACACAGCGUGGCAAAGUGGCUGUGGUUAGACUGCC [G1C A4C C10G C37U], the self-cleavage is reported as 0.01.
Variant GGCAGAGCUCAACACAACGCGGCAAAGUAUCUGUGGCUAGACUGCC [G17A U20C G29A G30U] has a self-cleavage of 0.04.
GGCAGAGCUCAACACAACGUGGCAAAGUGGCUGUGGCUGGUCUGCC [G17A A39G A41U] showed a self-cleavage of 0.05.
In the case of UGCGGAGAUCAAUACAGCGUGGCCAAGUGGCUGUGGCUAGACUGCC [G1U A4G C8A C13U A24C], the self-cleavage is reported as 0.25.
With GGCAGACCUCAACACAGCGUGGUAAAGUGGCUGUGGCUAGACUGCA [G7C C23U C46A] the self-cleavage was 0.05.
GGCAGAGCGCAAUACAGCGUGGCAAAGUGGCUGUGGCUAGAUUGCC [U9G C13U C42U] gave a self-cleavage of 0.07.
